Assay results taken from PubChem BioAssay AID686971 (National Center for Advancing Translational Sciences (NCATS), 2013).
The whole screen tested about 360,000 compounds, of which about 7,500 (2.1%) were called active. Inconclusive results, whose numbers are uncertain, are shown with a selection of clear calls. The call rests on the fitted dose curve; in most records, active means well fitted cell-killing curve with a large enough effect; inconclusive means small, poorly fitted or top-dose-only effect, or effect the other way, or another doubt; inactive means no such curve, though single readings can be large or run the other way. No potency is given beside an inconclusive call; the fits are too rough.
Potency means the concentration at half of the fitted maximal effect; tags describe the fitted curve by direction and shape.

Assay: qHTS for induction of synthetic lethality in tumor cells producing 2HG: qHTS for the HT-1080-IDH1KD cell line;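 on activity, negative = toxicity: 0% = DMSO wells and -100% = cell-free medium wells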
Details: HT-1080 IDH1 knockdown viability, ATP luminescence, 48 h; activity, negative = toxicity: at 46.1 µM (top of the series) unless noted
Outline: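 Knockdown cells (IDH1KD HT-1080) received compounds 2 h after plating at 750 cells/well and were kept 48 h at 37 °C in 5% FBS RPMI. A CellTiter-Glo luminescence read gave % activity for curve fitting.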
For `CC(C)C1CN1CC(O)Cn1ccnc1[N+](=O)[O-]` (stereo unspecified), the Potency was inconclusive [rising, single point]. In the case of `CNc1ccc2nc3ccccc3[n+](C)c2c1`, the Potency is reported as active: 14.6 µM. For `CCCCn1c(O)c(C(C)=NCC2CCCO2)c(=O)[nH]c1=O` (stereo unspecified), the Potency was inconclusive [cytotoxic, full curve, poor fit]. In the case of `CC(NC(=O)N1CC1(C)C)c1ccccc1` (stereo unspecified), the “activity, negative = toxicity” value is reported as inactive: 3.26%. In the case of `CCCCCCC(=O)N/N=C/c1c(O)n(CCc2ccccc2)c(=O)[nH]c1=O`, the activity, negative = toxicity is reported as inconclusive: -31.5% [cytotoxic]. For `CC(=O)OC(C)(C)/C=C/C(=O)[C@](C)(O)C1[C@H](O)C[C@@]2(C)C3CC=C4C(C[C@H](O)C(=O)C4(C)C)[C@]3(C)C(=O)C[C@]12C` (stereo partly specified), the Potency was active: 0.0326 µM. With `COc1ccc(CN2CCN(C(=O)COc3ccc4ccccc4c3)CC2)c(OC)c1` the Potency was inconclusive [cytotoxic, single point]. In the case of `Cc1cc(C)cc(N2C(=O)NC(=O)/C(=C/c3cccn3-c3ccc(Cl)cc3)C2=O)c1`, the Potency is reported as inconclusive [cytotoxic, single point]. With `C[C@H]1O[C@@H](OC2CC[C@]3(C=O)[C@H]4CC[C@]5(C)[C@@H](C6=CC(=O)OC6)CC[C@]5(O)[C@@H]4CC[C@]3(O)C2)CC2OC(C)(C)OC21` (stereo partly specified) the Potency was active: 0.103 µM. With `C=CCn1c(O)c(C(C)=NCc2cc(OC)cc(OC)c2)c(=O)[nH]c1=O` the Potency was active: 5.8 µM. For `O=C1NC(=O)C(=Cc2ccc(-c3ccc(F)cc3O)o2)C(=O)N1`, the Potency was inconclusive [cytotoxic, single point]. For `Fc1ccc([C@@H]2CCNC[C@H]2COc2ccc3c(c2)OCO3)cc1`, the Potency was active: 18.4 µM. With `COC(=O)C1=C(c2cccc(OCc3ccccc3)c2)C[C@@H]2CC[C@H]1N2C(=O)NC1CCN(Cc2ccccc2)CC1` the Potency was inconclusive [cytotoxic, single point]. With `COc1cc(CNCCc2c[nH]c3ccccc23)cc(OC)c1` the Potency was inconclusive [cytotoxic, partial curve]. For `CCN(CC)C1=NC(=[N+](CC)CC)c2ccccc21`, the Potency was active: 12.6 µM. With `O=c1c2ccccc2[nH]c(=S)n1-c1ccc2c(c1)OCCO2` the “activity, negative = toxicity” value was inactive: -7.71%. In the case of `Cc1ccc(-n2c(C)cc(/C=N/NC(=O)c3ccc(CN4CCOCC4)cc3)c2C)cc1`, the Potency is reported as inconclusive [cytotoxic, partial curve]. With `Nc1ncnc2c1ccn2[C@@H]1O[C@H](CO)[C@@H](O)[C@H]1O` the Potency was active: 0.82 µM. For `COc1ccc(CCn2c(O)c(C=NCc3ccc4c(c3)OCO4)c(=O)[nH]c2=O)cc1OC`, the activity, negative = toxicity was inconclusive: -27% [cytotoxic]. With `CCOc1ccc(S(=O)(=O)N(C)c2ccc(OCC(=O)N3c4ccc(C)cc4C4CN(C)CCC43)cc2)cc1` (stereo unspecified) the Potency was inconclusive [cytotoxic, single point]. For `CC(=O)c1cc(C(C)=O)c(C)[n+](C)c1C`, the “activity, negative = toxicity” value was inactive: 10.4%. With `CC1CC(C)OP(=O)(OCCC#N)O1` (stereo unspecified) the “activity, negative = toxicity” value was inactive: -1.22%. With `CCOC(=O)CC(NC(=O)C(Cc1ccc(N(CCCl)CCCl)cc1)NC(C)=O)C(=O)OCC` (stereo unspecified) the Potency was inconclusive [cytotoxic, partial curve]. With `CCOc1ccc(-n2c(-c3cccs3)nc3ccccc3c2=O)cc1` the “activity, negative = toxicity” value was inactive: 10.3%. In the case of `COC12C(COC(N)=O)C3=C(C(=O)C(C)=C(N)C3=O)N1CC1C2N1C` (stereo unspecified), the Potency is reported as inconclusive [cytotoxic, single point]. For `CCCCn1c(=O)c(C(=O)Nc2cnccn2)c(O)c2ccccc21`, the “activity, negative = toxicity” value was inactive: -28.4%. In the case of `CCOC(=O)c1cnc(SCc2ccc(Cl)c(Cl)c2)nc1N1CC1`, the Potency is reported as active: 9.2 µM. With `CCN(CC)c1ccc(N=Cc2c(O)n(Cc3ccco3)c(=O)[nH]c2=O)cc1` the “activity, negative = toxicity” value was inactive: 4.84%. For `CC(C)NC1C2CCC(CC2)C1(O)c1ccc(Cl)c(Cl)c1` (stereo unspecified), the Potency was inconclusive [cytotoxic, single point]. In the case of `CC[C@@H](C)[C@H](C(CC(=O)N1CCCC1[C@@H](OC)[C@H](C)C(=O)N[C@H](Cc1ccccc1)c1nccs1)OC)N(C)C(=O)[C@H](NC(=O)[C@@H](C(C)C)N(C)C)C(C)C` (stereo partly specified), the Potency is reported as inconclusive [cytotoxic, full curve, poor fit]. With `CCOC(=O)c1ccc(NC(=O)CCc2nc(-c3ccc(C)cc3)no2)cc1` the Potency was inconclusive [cytotoxic, single point]. In the case of `Nc1c(C(=O)OCC2CCCO2)c2nc3ccccc3nc2n1Cc1cccs1` (stereo unspecified), the Potency is reported as inconclusive [cytotoxic, partial curve]. For `Cc1c(C(c2ccc(Cl)cc2Cl)c2c(O)c3ccccc3oc2=O)c(=O)n(-c2ccccc2)n1C` (stereo unspecified), the “activity, negative = toxicity” value was inactive: 12.4%. In the case of `COc1cc(/C=C/C(=O)c2c(O)n(CCc3ccccc3)c(=O)[nH]c2=O)ccc1O`, the Potency is reported as active: 11.6 µM. In the case of `Clc1ccc2sc(C3CCNCC3)nc2c1`, the “activity, negative = toxicity” value is reported as inactive: -4.93%. In the case of `Cc1c(C)c2ccc(OCC(=O)N3CCC(C(=O)O)(c4ccccc4)CC3)cc2oc1=O`, the “activity, negative = toxicity” value is reported as inactive: -6.71%. With `Nc1ccnn1C1CCNCC1` the activity, negative = toxicity was inconclusive: 0.5%. In the case of `Cc1nn(Cc2ccccc2)c(C)c1C(=O)OCC(=O)NC1CCS(=O)(=O)C1` (stereo unspecified), the “activity, negative = toxicity” value is reported as inactive: 21.2%. With `Cc1[nH]c2ccc(OC(F)(F)F)cc2c1CCNCc1ccc(Cl)cc1` the Potency was active: 14.6 µM. With `O=C(CNC(=O)OCc1ccccc1)Nc1ccc(Br)cc1C(=O)c1ccccc1Cl` the Potency was inconclusive [cytotoxic, single point]. For `COC(=O)C1=C(c2ccc(S(C)(=O)=O)cc2)C[C@@H]2CC[C@H]1N2C(=O)N1CCC(C)CC1`, the “activity, negative = toxicity” value was inactive: 17.1%. In the case of `COC(=O)C1=C(c2ccccc2)C[C@@H]2CC[C@H]1N2C(=O)NCc1ccc(F)cc1`, the “activity, negative = toxicity” value is reported as inactive: -2.61%. For `CCOC(=O)[C@]12Cc3ccc(C)cc3[C@H]1N(C1CCCCC1)C(=O)c1cc(OC)ccc12`, the Potency was active: 3.26 µM. With `CCOc1cc2c(cc1OCC)-n1cccc1C(c1c(O)cccc1OC)NC2` (stereo unspecified) the Potency was active: 20.6 µM. With `CCCCCCOc1ccc(CN2CCN(CC)CC2)cc1` the Potency was inconclusive [cytotoxic, single point]. With `c1coc(CN2Cc3ccccc3-n3nncc3C2)c1` the “activity, negative = toxicity” value was inactive: -1.01%. For `C[C@@H]1C[C@@H]2O[C@H]2/C=C\C=C\C(=O)Cc2c(Cl)c(O)cc(O)c2C(=O)O1`, the Potency was inconclusive [cytotoxic, single point]. With `C=CCn1c(O)c(C(CC)=Nc2ccc(N(C)C)cc2)c(=O)[nH]c1=O` the “activity, negative = toxicity” value was inactive: -3.34%. For `COc1ccc(-c2nnc(Nc3nc4c(OC)cccc4s3)o2)c(OC)c1`, the Potency was active: 3.16 µM. With `CCOC(=O)c1ccc(-[n+]2c(-c3ccccc3)cc(-c3ccccc3)cc2-c2ccccc2)cc1` the Potency was active: 23.1 µM. In the case of `Cc1nc2cc(C(F)(F)F)ccc2n1C1CCN(Cc2nnnn2CCc2ccccc2)CC1`, the Potency is reported as inconclusive [cytotoxic, partial curve]. In the case of `CC(=O)CCC(C)=O`, the “activity, negative = toxicity” value is reported as inactive: 8.99%. For `CSc1ccc(C(=O)C2CCCN(Cc3cc4ccccc4[nH]3)C2)cc1` (stereo unspecified), the Potency was inconclusive [cytotoxic, partial curve]. With `CC12CC[C@H]3[C@@H](CCC4(O)C[C@H](O)CCC34/C=N/NC(=O)c3ccccc3F)C1(O)CCC2C1=CC(=O)OC1` (stereo partly specified) the Potency was inconclusive [cytotoxic, single point]. In the case of `CCC(=O)N1N=C(c2c(O)n(C)c(=O)n(C)c2=O)CC1c1ccccc1` (stereo unspecified), the Potency is reported as active: 6.51 µM. For `O=C(CN1CCN(c2nc(-c3ccc(F)cc3)cs2)CC1)NCc1ccc2c(c1)OCO2`, the Potency was inconclusive [cytotoxic, single point]. In the case of `OC(CNCCc1c[nH]c2ccccc12)c1ccccc1` (stereo unspecified), the “activity, negative = toxicity” value is reported as inactive: -10.4%. For `O=C(CC1CCCCC1)c1c(O)c2ccccc2oc1=O`, the Potency was inconclusive [cytotoxic, single point]. In the case of `CC(=O)OC1CC2(O)C3CCC4CC(O)CCC4(C)C3CCC2(C)C1C1=CC(=O)OC1` (stereo unspecified), the Potency is reported as active: 0.517 µM. For `O=C(Cn1c2c(c(-c3ccccc3Cl)cc1=O)CCC2)N1CCC2(CC1)OCCO2`, the “activity, negative = toxicity” value was inactive: 1.13%. In the case of `CCCCn1nnnc1C(CCSC)N1CCC(n2c(=O)[nH]c3ccccc32)CC1` (stereo unspecified), the Potency is reported as inconclusive [cytotoxic, single point]. In the case of `CCOP(=O)(OCC)C(Nc1cccc(C(F)(F)F)c1)c1ccc(C)cc1` (stereo unspecified), the Potency is reported as inconclusive [cytotoxic, partial curve, poor fit]. In the case of `COc1ccc(S(=O)(=O)Nc2ccc(F)cc2)cc1N(C)S(=O)(=O)c1ccc(Cl)cc1`, the Potency is reported as inconclusive [cytotoxic, single point]. In the case of `CCOC(=O)[C@]12Cc3c(cc(OC)c(OC)c3OC)[C@H]1N(C)C(=O)c1cc(OC)ccc12`, the Potency is reported as inconclusive [cytotoxic, single point]. In the case of `CC(C)(C)NS(=O)(=O)c1cccc(S(=O)(=O)c2cccc(S(=O)(=O)NC(C)(C)C)c2)c1`, the Potency is reported as inconclusive [cytotoxic, single point]. For `CN1C(=O)/C(=C/c2cccn2-c2ccc3ccccc3c2)C(=O)NC1=S`, the Potency was inconclusive [cytotoxic, single point]. In the case of `Cc1[nH]nc2ccc(-c3cncc(OC[C@@H](N)Cc4c[nH]c5ccccc45)c3)cc12`, the Potency is reported as active: 10.3 µM. In the case of `O=c1[nH]c2ccccc2n1C1CCN(C(c2cc3ccccc3o2)c2nnnn2-c2ccc3c(c2)OCCO3)CC1` (stereo unspecified), the Potency is reported as active: 18.4 µM. In the case of `O=[N+]([O-])c1ccccc1CNCCc1c[nH]c2ccccc12`, the “activity, negative = toxicity” value is reported as inactive: -0.941%. With `COc1ccc(CN2CCCC(C(=O)c3ccc(Cl)cc3)C2)c(OC)c1` (stereo unspecified) the Potency was active: 9.2 µM. In the case of `Clc1ccc(C(Cn2ccnc2)OCc2csc3c(Cl)cccc23)c(Cl)c1` (stereo unspecified), the Potency is reported as active: 20.6 µM.
